# Test results from the supplement of paper PMC9334596.
# Values joined by “and” are separate entries in the source; they are usually repeats but may differ in a detail not shown here. Equal values may be shown once. Over roughly 5,300 compounds, “PER2::LUC luminescence relative to vehicle control” has its median near 0.96; the highest 2% begin near 1.3. This is one part of the list.
# Tested on: mPer2Luc MEF
# Assay: PER2::LUC luminescence relative to vehicle control (fold of vehicle); higher = higher PER2::LUC reporter signal
# Settings: 10 µM
# Method in brief: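 The reported values are PER2::LUC luminescence as fold of vehicle control in mouse embryonic fibroblasts carrying the mPer2Luc reporter. Cells were seeded at ~3000 per well in 384-well plates in DMEM with 10% FBS at 37 °C and 5% CO2, and compounds were added at 10 μM 48 h later. ONE-Glo luminescence was read 24 h and 30 h after treatment.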
Structure (SMILES),PER2::LUC luminescence (time after treatment 24 h),PER2::LUC luminescence (time after treatment 30 h)
Nc1ncnc2c1ncn2[C@@H]1O[C@H](COP(=O)(O)OP(=O)(O)OP(=O)(O)O)[C@@H](O)[C@H]1O,1.04 and 1.09,0.954 and 1.11
N#Cc1c(-c2ccccc2)cc(-c2cc(Br)ccc2O)[nH]c1=O,0.951,0.967
CC(=O)N[C@H]1[C@H]([C@H](O)[C@H](O)CO)OC(C(=O)O)=C[C@@H]1NC(=N)N,0.973,0.945
Cc1cnc(CNC(=O)c2c(=O)c3ccc(N4CCCN(C)CC4)nc3n3c2sc2ccccc23)cn1,0.864,0.599
COc1ccc(-c2cc(=O)c3ccc(O)cc3o2)cc1,1.19,1.23
N[C@@H](C(=O)N[C@@H]1C(=O)N2C(C(=O)O)=C(CSc3cn[nH]n3)CS[C@H]12)c1ccc(O)cc1,1,0.912
CN(C)Cc1cccc(N/C(=C2\C(=O)Nc3cc(C(N)=O)ccc32)c2ccccc2)c1,0.8 and 0.668,0.995 and 0.615
CCN1CC(CCN2CCOCC2)C(c2ccccc2)(c2ccccc2)C1=O (configuration not stated),1.19 and 1.17,1.11 and 1.06
Cc1c(C(=O)NN2CCOCC2)nn(-c2ccc(Cl)cc2Cl)c1-c1ccc(I)cc1,1.07,1.09
C=C1C(=O)O[C@@H]2C[C@@]3(C)CCC[C@H](C)C3=C[C@H]12,0.959,0.945
C#CCN1C(C)=C(C(=O)OC)C(c2cccc([N+](=O)[O-])c2)C(C(=O)OCC)=C1C (configuration not stated),0.918,0.966
COc1ccc(C(=O)/C=C/c2ccccc2)cc1,1.25,1.28
OCc1cc(C(O)CNCCCCCCOCCCCc2ccccc2)ccc1O (configuration not stated),0.732 and 1.11,0.766 and 1.06
OCC12COC(c3ccc(F)cc3)N1C(c1ccc(F)cc1)OC2 (configuration not stated),1.07,1.03
CC(=O)OCC(=O)[C@@]12N=C(C)O[C@@H]1C[C@H]1[C@@H]3CCC4=CC(=O)C=C[C@]4(C)[C@H]3[C@@H](O)C[C@@]12C,0.575,1.16
CC(=O)Nc1ccc(CC(=O)O)cc1,0.818,0.808
C[C@@H](CN1CC(=O)NC(=O)C1)N1CC(=O)NC(=O)C1,1.1,0.925
CC(C)CCC[C@@H](C)[C@H]1CC[C@H]2[C@@H]3C=CC4=CC(=O)CC[C@]4(C)[C@H]3CC[C@]12C,0.981,0.927
N=C(N)NCCC[C@H](N)C(=O)O,1.08 and 1.11,0.918 and 1.1

Structure (SMILES),PER2::LUC luminescence (time after treatment 24 h),PER2::LUC luminescence (time after treatment 30 h)
O=c1oc2cc(O)ccc2c2oc3cc(O)ccc3c12,1.06,1.13
CNCCC(Oc1ccc(C(F)(F)F)cc1)c1ccccc1 (configuration not stated),0.743 and 0.643,0.681 and 0.579
Cc1nc2n(c(=O)c1CCN1CCC(c3noc4cc(F)ccc34)CC1)CCCC2,1.04,0.953
Cc1cc2c(cc1Cl)N(C(=O)Nc1cccc3ncccc13)CC2,1.21,1.06
CCn1cc(C(=O)O)c(=O)c2cnc(N3CCCC3)nc21,0.937,0.965
O=S(=O)(O)CCS,1.06,1.06
CCCCCCCCCCCCC[N+](C)(C)Cc1ccccc1,0.132,0.207
CCCCCCCCCCC/C=C\C(C)(C)/C=C\CCCC(=O)O,0.905,0.804
Cn1c(-c2ccc3c(c2)OCO3)cc(=O)c2ccccc21,1.07,1.11
CCOc1ccccc1OCCN[C@H](C)Cc1ccc(OC)c(S(N)(=O)=O)c1,1.09 and 1.03,1.05 and 0.993
CC(C)(C)NC[C@H](O)c1ccc(O)c(CO)c1,0.599,0.909
CC(C)Nc1ncccn1,0.974,0.864
O=C(O)c1cc(-c2ccc(F)cc2F)ccc1O,0.866,1.07
O[C@H]1[C@H]2c3cc4c(cc3CN3CCC(=C[C@@H]1O)[C@H]23)OCO4,1.03,0.952
CCCCNC(=O)NS(=O)(=O)c1ccc(C)cc1,0.913,0.908
COC(=O)c1c(C)cc(O)cc1O,1.01,0.946
CCCS(=O)(=O)Nc1ccc(F)c(C(=O)c2c[nH]c3ncc(-c4ccc(Cl)cc4)cc23)c1F,0.839 and 1.12,0.889 and 1.04
CCOC(=O)OC(C)OC1=C(C(=O)Nc2ccccn2)N(C)S(=O)(=O)c2ccccc21 (configuration not stated),1.1,0.871
O=C(Nc1c(Cl)cncc1Cl)c1ccc(OC(F)F)c(OCC2CC2)c1,0.843,0.859

Structure (SMILES),PER2::LUC luminescence (time after treatment 24 h),PER2::LUC luminescence (time after treatment 30 h)
CC(=O)[C@H]1CC[C@H]2[C@@H]3C[C@H](C)C4=CC(=O)CC[C@]4(C)[C@H]3[C@@H](O)C[C@]12C,0.583,1.12
CN(C)Cc1ccc(-c2nc3cccc4c3n2CCNC4=O)cc1,1.09,1.05
CCCCCCc1ccc(O)cc1O,0.949 and 0.856,0.695 and 0.726
CC1(C)NC(=O)N(c2ccc([N+](=O)[O-])c(C(F)(F)F)c2)C1=O,0.945,1.04
CC(C)(c1ccc(O)cc1)c1ccc(O)cc1,1.22,1.26
CC(C)C[C@H](NC(=O)[C@H]1O[C@@H]1C(=O)O)C(=O)NCCCCN=C(N)N,0.953,0.977
Cc1nnc(-c2sc(NC(=O)[C@H](C(C)C)n3c(=O)[nH]c4ccccc4c3=O)nc2C)o1,1.04,0.956
Oc1c2ccccc2c2c3c(cccc13)N=N2,0.849,1.03
C=C(C)[C@@H]1CC=C(C(=O)O)CC1,0.906 and 1.06,0.925 and 1.16
COC(=O)[C@@H]1[C@H]2C[C@H]3c4[nH]c5ccccc5c4CCN3C[C@@H]2CC[C@@H]1O,0.959,0.869
C[C@]12C=CC(=O)C=C1CC[C@@H]1[C@@H]2[C@@H](O)C[C@@]2(C)[C@H]1CC[C@]2(O)C(=O)COC(=O)CCC(=O)O,0.653 and 0.556,0.852 and 0.926
COC(=O)C[C@H]1C(C)(C)C(=O)[C@@H]2CC3=C4CC(=O)O[C@@H](c5ccoc5)[C@]4(C)CC[C@@H]3[C@@]1(C)C2=O,0.9,0.918
CC(C)NCC(O)COc1cccc2ccccc12 (configuration not stated),0.712,0.907
COc1ccc2cc([C@@H](C)C(=O)O)ccc2c1,1,1.05
COc1cccc(CNc2ccc3nc(-c4ccc(N)cc4)c(OC)n3n2)c1,0.931,0.985
Nc1nc(=O)c2c([nH]1)NC[C@@H](CNc1ccc(C(=O)N[C@@H](CCC(=O)O)C(=O)O)cc1)N2C=O,1.09,1.05
CC(=O)N[C@@H]([C@@H](O)[C@H](O)[C@H](O)CO)[C@@H](O)CC(=O)C(=O)O,0.972,1.01
COC(=O)[C@H](Cc1cccc(C(=N)N)c1)[C@@H](C)NC(=O)c1ccc(-c2cc[n+]([O-])cc2)cc1,1.02,1.04
